{"source": "the BET-seq Pho4 binding data (Le et al. 2018)", "note": "The list shows a part of the results. These are noisy estimates, calculated here from bound and input reads.", "data": [{"molecular_target": "T1, Pho4 (S. cerevisiae) (UniProt P07270)", "T1 sequence": "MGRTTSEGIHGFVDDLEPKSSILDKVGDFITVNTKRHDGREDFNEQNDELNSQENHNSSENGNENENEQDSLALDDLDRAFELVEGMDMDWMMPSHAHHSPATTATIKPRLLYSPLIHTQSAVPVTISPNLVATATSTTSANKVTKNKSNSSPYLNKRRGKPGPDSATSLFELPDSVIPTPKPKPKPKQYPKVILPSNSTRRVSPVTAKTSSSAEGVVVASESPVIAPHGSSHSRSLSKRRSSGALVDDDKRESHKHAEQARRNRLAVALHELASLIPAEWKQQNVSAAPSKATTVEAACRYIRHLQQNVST", "assay": "relative binding free energy (BET-seq); higher = weaker binding", "details": "reference: library average", "units": {"relative binding free energy": "kcal/mol"}, "values": [{"sequence": "CGGGGCACGTGTGAGT", "relative binding free energy": 0.04}, {"sequence": "AGTTTCACGTGCAGGG", "relative binding free energy": 0.25}, {"sequence": "GGGCGCACGTGTATAG", "relative binding free energy": -0.08}, {"sequence": "TGGAACACGTGTTGGT", "relative binding free energy": 0.17}, {"sequence": "GGAGGCACGTGTTCGT", "relative binding free energy": -0.1}, {"sequence": "CGCGGCACGTGTGGAG", "relative binding free energy": -0.1}, {"sequence": "TGAAACACGTGTTAGT", "relative binding free energy": -0.06}, {"sequence": "AATTGCACGTGTCTAT", "relative binding free energy": 0.1}, {"sequence": "CATAGCACGTGTTTGG", "relative binding free energy": -0.02}, {"sequence": "ATGGGCACGTGTGGAG", "relative binding free energy": -0.11}, {"sequence": "TTCGTCACGTGTTTCT", "relative binding free energy": -0.01}, {"sequence": "ATTACCACGTGATGGG", "relative binding free energy": 0}, {"sequence": "ATGCACACGTGGGTCG", "relative binding free energy": 0.01}, {"sequence": "TGGATCACGTGTGGAG", "relative binding free energy": 0.27}, {"sequence": "GTCTTCACGTGGGGAT", "relative binding free energy": 0.15}, {"sequence": "AGGTGCACGTGCTTTG", "relative binding free energy": -0.14}, {"sequence": "GTTTACACGTGGCGTG", "relative binding free energy": 0.13}, {"sequence": "CAAGGCACGTGAGTAG", "relative binding free energy": 0.19}, {"sequence": "AGAGTCACGTGAAGGG", "relative binding free energy": 0.33}, {"sequence": "ATGGGCACGTGGTGAT", "relative binding free energy": -0.14}, {"sequence": "ATGGTCACGTGAGGGG", "relative binding free energy": 0.31}, {"sequence": "GGCTGCACGTGATATG", "relative binding free energy": 0.21}, {"sequence": "TAGTGCACGTGGTATG", "relative binding free energy": -0.11}, {"sequence": "GGTTCCACGTGTGGCA", "relative binding free energy": 0.11}, {"sequence": "TTCTTCACGTGCGTGG", "relative binding free energy": 0.14}, {"sequence": "CGGCGCACGTGGTGGC", "relative binding free energy": -0.27}, {"sequence": "TATGGCACGTGGTGTA", "relative binding free energy": -0.21}, {"sequence": "TTGGTCACGTGCCTTT", "relative binding free energy": -0.13}, {"sequence": "TCGGGCACGTGCGGTG", "relative binding free energy": -0.11}, {"sequence": "TTGGACACGTGGGGTC", "relative binding free energy": -0.09}, {"sequence": "AGTAACACGTGTTCGG", "relative binding free energy": -0.02}, {"sequence": "AAATACACGTGGATGG", "relative binding free energy": 0.12}, {"sequence": "AGGAGCACGTGCGTTT", "relative binding free energy": -0.1}, {"sequence": "AATTTCACGTGCTGGC", "relative binding free energy": 0.42}, {"sequence": "GTTGCCACGTGTTTAA", "relative binding free energy": 0.06}, {"sequence": "TTAGACACGTGACGTG", "relative binding free energy": 0.07}, {"sequence": "GTACACACGTGGTATG", "relative binding free energy": 0.03}, {"sequence": "GCTGTCACGTGAAGGG", "relative binding free energy": 0.38}, {"sequence": "ATGGTCACGTGTAATA", "relative binding free energy": 0.18}, {"sequence": "ACGGCCACGTGAGTGG", "relative binding free energy": 0.14}, {"sequence": "TATGGCACGTGGGCCG", "relative binding free energy": -0.25}, {"sequence": "ACATGCACGTGGGTGA", "relative binding free energy": -0.19}, {"sequence": "TACAGCACGTGAGGTG", "relative binding free energy": 0.19}, {"sequence": "ATGATCACGTGTGATA", "relative binding free energy": 0.33}, {"sequence": "TTAGCCACGTGTGGAT", "relative binding free energy": -0.01}, {"sequence": "TTGCGCACGTGGTTAA", "relative binding free energy": -0.18}, {"sequence": "AGCTCCACGTGGTGGG", "relative binding free energy": -0.16}, {"sequence": "TGGCGCACGTGGATGA", "relative binding free energy": -0.03}, {"sequence": "TAGTACACGTGTAGGT", "relative binding free energy": 0.13}, {"sequence": "GGTTTCACGTGTCTTT", "relative binding free energy": 0.22}, {"sequence": "GGTGGCACGTGTGCGC", "relative binding free energy": 0.03}, {"sequence": "ATGTACACGTGGGTAC", "relative binding free energy": -0.1}, {"sequence": "TGTCGCACGTGGGCTG", "relative binding free energy": -0.38}, {"sequence": "AGGGGCACGTGATGCA", "relative binding free energy": -0.06}, {"sequence": "TCAGACACGTGGGGTA", "relative binding free energy": -0.15}, {"sequence": "TGATTCACGTGGACGG", "relative binding free energy": 0.41}, {"sequence": "TTAGGCACGTGCACGG", "relative binding free energy": -0.15}, {"sequence": "TTTGACACGTGCGGCG", "relative binding free energy": -0.11}, {"sequence": "TGACGCACGTGGTATG", "relative binding free energy": -0.22}, {"sequence": "GTTGGCACGTGCTTGT", "relative binding free energy": -0.09}, {"sequence": "GTGCACACGTGGGGCG", "relative binding free energy": 0}, {"sequence": "AGCGTCACGTGTTGTT", "relative binding free energy": -0.07}, {"sequence": "GTTGACACGTGAGTAG", "relative binding free energy": 0.25}, {"sequence": "TGGTACACGTGTGAGG", "relative binding free energy": 0.11}, {"sequence": "GAGAGCACGTGGTTCG", "relative binding free energy": 0.05}, {"sequence": "TACTGCACGTGGCGGT", "relative binding free energy": -0.13}, {"sequence": "GTAGTCACGTGGAGCT", "relative binding free energy": 0.26}, {"sequence": "CTTTTCACGTGAATTT", "relative binding free energy": 0.33}, {"sequence": "GGTAGCACGTGGAAAG", "relative binding free energy": 0.14}, {"sequence": "TCTATCACGTGGGGGG", "relative binding free energy": 0}, {"sequence": "GATGTCACGTGTATAG", "relative binding free energy": 0.22}, {"sequence": "ATTCCCACGTGTTGGT", "relative binding free energy": 0}, {"sequence": "GTTGGCACGTGCGGTT", "relative binding free energy": -0.08}, {"sequence": "TATGGCACGTGTAATA", "relative binding free energy": 0.04}, {"sequence": "TTTCGCACGTGGCTGG", "relative binding free energy": -0.17}, {"sequence": "ACGGTCACGTGATTTA", "relative binding free energy": 0.23}, {"sequence": "ATGTTCACGTGAGGCG", "relative binding free energy": 0.34}, {"sequence": "GGTTACACGTGAGCTT", "relative binding free energy": 0.3}, {"sequence": "GGCGACACGTGTGTTT", "relative binding free energy": 0.02}, {"sequence": "CGTGGCACGTGGGCCG", "relative binding free energy": -0.15}, {"sequence": "GCTAACACGTGTGTGT", "relative binding free energy": 0.02}, {"sequence": "CTGGTCACGTGGTTTA", "relative binding free energy": 0.03}, {"sequence": "TGAAACACGTGTGGTG", "relative binding free energy": -0.08}, {"sequence": "AGGGGCACGTGAGACT", "relative binding free energy": 0.17}, {"sequence": "AGGTGCACGTGTCGGC", "relative binding free energy": 0.06}, {"sequence": "GTTATCACGTGATAAT", "relative binding free energy": 0.19}, {"sequence": "TCTGGCACGTGGTAGT", "relative binding free energy": -0.21}, {"sequence": "AGTGTCACGTGAGGAG", "relative binding free energy": 0.23}, {"sequence": "AAGCACACGTGGTGGT", "relative binding free energy": 0.01}, {"sequence": "GGTAACACGTGATCTG", "relative binding free energy": 0.31}, {"sequence": "TTAGACACGTGGCTTG", "relative binding free energy": -0.13}, {"sequence": "GTCCTCACGTGTGGTG", "relative binding free energy": 0.13}, {"sequence": "TCTGGCACGTGTGGTC", "relative binding free energy": -0.09}, {"sequence": "GGGGTCACGTGAAATT", "relative binding free energy": 0.35}, {"sequence": "GTTAGCACGTGTGTCA", "relative binding free energy": -0.02}, {"sequence": "GGTAGCACGTGATGAA", "relative binding free energy": 0.17}, {"sequence": "TGGGACACGTGTGCGT", "relative binding free energy": 0.11}, {"sequence": "TGTTTCACGTGTGGGC", "relative binding free energy": 0.31}, {"sequence": "CGTGTCACGTGTAGTT", "relative binding free energy": 0.12}, {"sequence": "TCGGGCACGTGCGGGG", "relative binding free energy": -0.1}, {"sequence": "AATGTCACGTGGGTAG", "relative binding free energy": -0.04}, {"sequence": "TGTTGCACGTGTTCAA", "relative binding free energy": -0.14}, {"sequence": "GTCATCACGTGTGATG", "relative binding free energy": 0.24}, {"sequence": "GGTGGCACGTGTACGC", "relative binding free energy": 0.04}, {"sequence": "ATGAGCACGTGTTCGG", "relative binding free energy": -0.06}, {"sequence": "GTGGCCACGTGGGAGT", "relative binding free energy": -0.09}, {"sequence": "GACGGCACGTGTTTTG", "relative binding free energy": 0.03}, {"sequence": "TGAGACACGTGGTTGG", "relative binding free energy": 0.04}, {"sequence": "GTCTGCACGTGTACGG", "relative binding free energy": 0.11}, {"sequence": "GGAACCACGTGGTGGG", "relative binding free energy": -0.1}, {"sequence": "GGTTTCACGTGGGCGG", "relative binding free energy": 0.24}, {"sequence": "TTGGACACGTGAATGG", "relative binding free energy": 0.32}, {"sequence": "CGTATCACGTGGAAGG", "relative binding free energy": 0.09}, {"sequence": "TATCTCACGTGATGGG", "relative binding free energy": 0.39}, {"sequence": "TGTTACACGTGAGAGG", "relative binding free energy": 0.25}]}]}
